# Laboratory results: PMC4336329 (PLoS ONE, 2015)
# Screen size: about 310,000 compounds; about 14,000 (4.5%) showed an effect of 50% or more. Effects have a minus sign here. Some of the results follow.
# Target: human ether-à-go-go-related gene (hERG) potassium channel (human, UniProt Q12809)
# Experiment: primary screen, population patch clamp on CHO cells stably expressing hERG
# 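Also: peak tail current of the secondary pulse compared with the same well before compound.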
# Chain of human ether-à-go-go-related gene (hERG) potassium channel (Q12809 whole entry, looked up): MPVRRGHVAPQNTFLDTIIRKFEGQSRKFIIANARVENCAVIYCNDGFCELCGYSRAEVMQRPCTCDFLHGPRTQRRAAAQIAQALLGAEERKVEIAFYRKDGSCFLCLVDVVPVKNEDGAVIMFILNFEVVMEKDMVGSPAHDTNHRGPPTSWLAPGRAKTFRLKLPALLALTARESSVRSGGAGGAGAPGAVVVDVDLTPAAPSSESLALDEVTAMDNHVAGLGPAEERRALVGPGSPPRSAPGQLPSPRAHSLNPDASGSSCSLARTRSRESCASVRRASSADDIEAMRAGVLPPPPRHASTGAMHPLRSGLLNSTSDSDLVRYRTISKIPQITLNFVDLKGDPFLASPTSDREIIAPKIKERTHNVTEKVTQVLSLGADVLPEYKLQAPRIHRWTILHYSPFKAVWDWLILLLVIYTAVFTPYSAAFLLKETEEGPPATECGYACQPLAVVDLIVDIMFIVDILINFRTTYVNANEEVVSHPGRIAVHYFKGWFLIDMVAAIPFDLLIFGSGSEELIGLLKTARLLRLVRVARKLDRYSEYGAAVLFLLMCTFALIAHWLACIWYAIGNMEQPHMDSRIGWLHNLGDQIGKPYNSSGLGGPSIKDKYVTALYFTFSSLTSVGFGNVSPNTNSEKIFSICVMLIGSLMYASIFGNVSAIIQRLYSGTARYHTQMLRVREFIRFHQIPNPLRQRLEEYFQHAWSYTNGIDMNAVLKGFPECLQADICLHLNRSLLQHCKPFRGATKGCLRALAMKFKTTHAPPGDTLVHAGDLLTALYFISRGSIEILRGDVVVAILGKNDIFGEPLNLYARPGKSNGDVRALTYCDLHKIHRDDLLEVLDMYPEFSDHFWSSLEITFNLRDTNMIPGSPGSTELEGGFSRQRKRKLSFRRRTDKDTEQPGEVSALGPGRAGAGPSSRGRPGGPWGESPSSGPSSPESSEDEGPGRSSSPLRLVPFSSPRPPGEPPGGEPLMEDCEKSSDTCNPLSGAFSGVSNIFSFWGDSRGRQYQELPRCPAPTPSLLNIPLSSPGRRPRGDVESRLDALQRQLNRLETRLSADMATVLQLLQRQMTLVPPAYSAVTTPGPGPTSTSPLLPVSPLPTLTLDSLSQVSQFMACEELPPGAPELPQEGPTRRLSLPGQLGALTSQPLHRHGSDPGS
row,Structure (SMILES),"hERG current change (%, negative = inhibition) at 10uM [%]"
1,O=c1c2ccccc2sc2ccc(NCCCN3CCOCC3)cc12,-54.2
2,CCCOC(=O)Nc1sc2c(c1C(N)=O)CCCC2,28.3
3,CCOC(=O)/C(N=Nc1c(C)n(C)n(-c2ccccc2)c1=O)=C(\C)O,0.837
4,CCS(=O)(=O)c1ccc2oc(Nc3cc(Cl)ccc3OC)nc2c1,-0.211
5,CCn1c(COc2ccc(=O)n(-c3ccccc3)n2)nnc1SCc1ccccc1C,-65.4
6,O=C(COC(=O)CCc1c[nH]c2ccccc12)NC1CCS(=O)(=O)C1 (stereo not drawn),8.32
7,CCCCC1(C(=O)OCC)CC(CN2CCOCC2)OC1=O (stereo not drawn),-3
8,Cc1ccc(NC(=O)C2CCN(S(=O)(=O)c3ccc4c(c3)OCCO4)CC2)nc1,-0.232
9,CCCOC(=O)c1cccc(NC(=O)c2cccnc2)c1,-39.7
10,COc1ccc(C(=O)N2CC(=O)Nc3ccc(F)cc3C2c2ccccc2)cc1 (stereo not drawn),-7.66
11,CCOC(=O)COc1ccc2c(c1)c(C(=O)OCC)c(C)n2CC,-29.1
12,NC(=O)c1ccc[n+](CC(=O)c2ccc(NC(=O)c3ccccc3)cc2)c1.[Br-],27.1
13,O=C(Nc1ccc2c(c1)OCO2)C(c1ccccc1)N1CCN(C(=O)c2ccco2)CC1 (stereo not drawn),-33.2
14,O=C(C[N+]12CC[N+](CC(=O)c3ccc(F)cc3)(CC1)CC2)c1ccc(F)cc1.[Cl-],12.7
15,O=C(CSc1nc2cc(Cl)ccc2s1)NC1CCCc2ccccc21 (stereo not drawn),-2.3
16,CCCCNC(=O)c1ccccc1NC(=O)c1ccc2c(c1)OCO2,8.79
17,[2H]c1c([2H])c([2H])c(-c2nc(N3CCCCCC3)sc2C(=O)c2ccccc2)c([2H])c1[2H],-2.19
18,CCS(=O)(=O)N1CCN(CC(=O)NC2CCCCC2)CC1.Cl,15.4
19,COc1ccc(S(=O)(=O)N2CCC(C(=O)NCCC(=O)NCc3ccncc3)CC2)cc1,11
20,COc1ccc(/C=N/OCC(=O)N=Nc2c(O)[nH]c3ccc(Br)cc23)cc1OC,2.62
21,CCN(CC)S(=O)(=O)c1ccc2[nH]cc(C(=O)NCCCN3CCCCC3C)c(=O)c2c1 (stereo not drawn),-4.48
22,O=C(COc1ccccc1[N+](=O)[O-])Nc1ccccc1N1CCCCC1,-5.76

row,Structure (SMILES),"hERG current change (%, negative = inhibition) at 10uM [%]"
1,COc1ccc(OC)c(NC(=O)CSc2ncccn2)c1,4.45
2,CCCCN(C(=O)NC(=O)C1=C(N2CCOCC2)/C(=C/c2ccccc2)CC1)S(C)(=O)=O,-6.13
3,CCC(c1nnc(SCC(=O)Nc2ccc(C(=O)Nc3ccccc3OC)cc2)o1)N(C)C (stereo not drawn),2.59
4,Cc1cccc(C)c1NC(=S)NN1CCN(C)CC1,8.97
5,Cc1cc(OCC(=O)NC2CCN(C)CC2)ccc1[N+](=O)[O-],-1.32
6,COc1cccc(CNC(=O)c2cc3oc4ccccc4c3n2C)c1OC,13.4
7,Cc1ccc(C(=O)N/C(=C\c2cn(C)c3ccccc23)C(=O)N2CCN(C)CC2)cc1,-10.8
8,COCC(=O)Nc1ccccc1NC(C)=O,-5.64
9,O=C(/C=C/c1ccco1)N1CCN(c2ccc(F)cc2)CC1,-14.8
10,Cc1ccsc1/C=N/n1cnc2sc(C)c(C)c2c1=O,-3.99
11,O=c1c2cc3c(cc2[nH]c(=S)n1CCN1CCOCC1)OCO3,9.66
12,CCc1cccc(OCC(=O)Nc2ccc(S(=O)(=O)Nc3ccccn3)cc2)c1,6.47
13,CCN(CC)C(=O)c1ccc(-c2nnc(OC)c3ccccc23)cc1,-11.8
14,COc1cccc(-n2c(=O)c3c(C)c(C(=O)N(C)C)sc3n(CC(=O)NCC3CCCO3)c2=O)c1 (stereo not drawn),13
15,Cc1ccc(N=Cc2sc(O)c3ccccc23)cc1,10.6
16,COc1ccc(NC(=S)N2CCc3ccccc3C2)cc1,-5.61
17,CCC(=O)N1CCN(c2ccc(NC(=O)c3ccc4c(c3)OCO4)cc2)CC1,-0.905
18,CC1CCN(C(=S)Nc2cccc(S(=O)(=O)N(C)C)c2)CC1,11.1
19,CN(CC(=O)Nc1ccccc1N1CCOCC1)S(=O)(=O)c1ccc(Cl)cc1,5.93
20,COc1ccc(N2C(=O)c3ccc(C(=O)Nc4ccc(NC(C)=O)cc4)cc3C2=O)cc1,-3.33
21,COc1ccc(Cl)cc1NC(=O)c1cc(-c2ccco2)on1,11.9
22,O=C(COc1ccc(Cl)cc1)NCCCNC(=O)c1cccnc1,-8.28

row,Structure (SMILES),"hERG current change (%, negative = inhibition) at 10uM [%]"
1,COC(=O)C1=C(C)N=C2SC(C)C(=O)N2C1c1ccc(C(=O)OC)cc1 (stereo not drawn),4.87
2,Cn1ncc(C#N)c1NC(=O)C1CC(c2ccc(Cl)c(Cl)c2)=NO1 (stereo not drawn),-9.94
3,O=S(=O)(NCC(c1ccc2c(c1)OCO2)N1CCOCC1)c1ccccc1 (stereo not drawn),-15.1
4,O=C(O)CSc1nnc(-c2ccc(Cl)cc2Cl)n1-c1ccc(Br)cc1,7.53
5,CC(C)(C)OC(=O)NN1CC(=O)N2Cc3ccccc3C[C@@H]2C1=O,9.33
6,COc1cc(OC)cc(C(=O)O/N=C(\N)c2ccccn2)c1,7.21
7,COC(=O)CCCCCCCCC(O)C[N+]1(C)CCOCC1.[I-] (stereo not drawn),10.2
8,COc1ccc(-c2ccc(=O)n(CC(=O)Nc3nnc(C(C)C)s3)n2)cc1OC,11.9
9,COc1cccc2cc(C(=O)n3ccc(C)n3)c(=O)oc12,8.24
10,CCCCSc1nc2c(c(=O)[nH]1)CCC2,12.4
11,CCCOc1ccc(/C=C/C(=O)NCc2ccccc2)cc1,18.8
12,Cc1nc2ccc(S(=O)(=O)N(C)CC(=O)NC(C)c3ccccc3)cc2s1 (stereo not drawn),17.1
13,Cc1cc(C)n(CCC(=O)N=Nc2c(O)[nH]c3ccc(Br)cc23)n1,7.78
14,CN(C)S(=O)(=O)c1ccc(C(=O)NCCS(=O)(=O)N2CCN(c3ccc(F)cc3)CC2)cc1,1.61
15,Cc1ccc(-n2c(C)cc(/C=c3/sc4nc5ccccc5n4c3=O)c2C)cc1,9.55
16,CCNC(=O)CNC(=O)c1nn(Cc2ccccc2)c(=O)c2ccccc12,-2.55
17,CCc1nc2ccc(C(=O)N3CCN(c4cccc(C)c4C)CC3)cc2nc1CC,1.03
18,CCN(CC)c1ccc(C2C(C(C)=O)C(=O)CC(C)(O)C2C(C)=O)cc1 (stereo not drawn),-13.4
19,O=C(COC(=O)c1ccc(F)c(S(=O)(=O)N2CCOCC2)c1)NCc1ccco1,-3.72
20,C=CCSc1nc(C)c(CC(=O)OCCCC)c(=O)[nH]1,0.959
21,COCCn1c(SCC(=O)NC(=O)NC(C)(C)C)nc2ccccc21,-17
22,CC(C)c1ccc(OCc2ccc(C(=O)N(C)C)o2)cc1,-3.03

row,Structure (SMILES),"hERG current change (%, negative = inhibition) at 10uM [%]"
1,O=C(COC(=O)c1cc2c(s1)CCCC2)Nc1ccc(Cl)cn1,1.56
2,Cc1ccc(C)c(OCC(O)CN2CCC(C)CC2)c1C (stereo not drawn),-33.6
3,O=C1/C(=C/c2ccncc2)CCc2ccccc21,-35.5
4,O=S(=O)(Nc1cc2nc3ccccc3nc2n1Cc1ccccc1)c1ccc(Cl)cc1,8.22
5,CCc1nn2c(N3CCOCC3)cc(C)nc2c1-c1ccccc1,15
6,CC(=O)Nc1ccc(S(=O)(=O)Nc2cccc(-c3ccc4nncn4n3)c2)cc1,-11.2
7,O=C(Nc1ccc2c(c1)OCO2)C1CCCN1C(=O)NCc1ccccc1 (stereo not drawn),-4.95
8,Cc1cccc(NC(=O)CN2C(=O)S/C(=C\c3ccccn3)C2=O)c1,30.2
9,CCCOc1ccc(C2C(C(=O)/C=C/c3ccco3)=C(O)C(=O)N2CCN2CCOCC2)cc1OC (stereo not drawn),1.81
10,CCOc1ccc(C(=O)NCC(=O)OCC(=O)c2ccc3c(c2)-c2ccccc2C3)cc1,4.05
11,CCCC[N+]1(C)[C@@H]2CC(OC(=O)[C@H](CO)c3ccccc3)C[C@H]1[C@@H]1O[C@@H]12.[Br-] (stereo partly drawn),5.61
12,CN(C)c1ccc(N=Cc2nc(-c3ccccc3)oc2OC(=O)c2cccc(Cl)c2)cc1,4.46
13,Cc1ccc(NC(=O)CN(C)S(=O)(=O)c2cccc3cccnc23)c(C)c1,4.3
14,CCCn1c(OC)nc2c1c(=O)n(C)c(=O)n2C,-4.62
15,CCOC(=O)C(NCCOC)(NC(C)=O)C(F)(F)F (stereo not drawn),11.4
16,O=C(NCCN1CCOCC1)c1ccc2c(c1)ncn2C1CCCC1,-6.39
17,CCc1ccc(-c2ccc3nnc(SCC(N)=O)n3n2)cc1,8.33
18,COc1ccccc1-n1c(C)nc2cc(C(=O)NCCN3CCOCC3)ccc21,9.24
19,O=C(CS(=O)(=O)c1ccccc1)NC1CCCCC1,14.5
20,CC(=O)c1sc(NC(=O)CSCc2c(C)noc2C)nc1-c1ccccc1,-27.4
21,O=C(Nc1nc(-c2ccccc2)cs1)c1cccc(S(=O)(=O)N2CCN(Cc3ccccc3)CC2)c1,17.6
